Out of some 310,000 compounds screened, about 2,200 (0.71%) showed an effect of 50% or more. Effects have a minus sign here. The list shows a part of the results.
target: human ether-à-go-go-related gene (hERG) potassium channel (human, UniProt Q12809); experiment: primary screen, population patch clamp on CHO cells stably expressing hERG
Sequence (Q12809 whole entry, looked up): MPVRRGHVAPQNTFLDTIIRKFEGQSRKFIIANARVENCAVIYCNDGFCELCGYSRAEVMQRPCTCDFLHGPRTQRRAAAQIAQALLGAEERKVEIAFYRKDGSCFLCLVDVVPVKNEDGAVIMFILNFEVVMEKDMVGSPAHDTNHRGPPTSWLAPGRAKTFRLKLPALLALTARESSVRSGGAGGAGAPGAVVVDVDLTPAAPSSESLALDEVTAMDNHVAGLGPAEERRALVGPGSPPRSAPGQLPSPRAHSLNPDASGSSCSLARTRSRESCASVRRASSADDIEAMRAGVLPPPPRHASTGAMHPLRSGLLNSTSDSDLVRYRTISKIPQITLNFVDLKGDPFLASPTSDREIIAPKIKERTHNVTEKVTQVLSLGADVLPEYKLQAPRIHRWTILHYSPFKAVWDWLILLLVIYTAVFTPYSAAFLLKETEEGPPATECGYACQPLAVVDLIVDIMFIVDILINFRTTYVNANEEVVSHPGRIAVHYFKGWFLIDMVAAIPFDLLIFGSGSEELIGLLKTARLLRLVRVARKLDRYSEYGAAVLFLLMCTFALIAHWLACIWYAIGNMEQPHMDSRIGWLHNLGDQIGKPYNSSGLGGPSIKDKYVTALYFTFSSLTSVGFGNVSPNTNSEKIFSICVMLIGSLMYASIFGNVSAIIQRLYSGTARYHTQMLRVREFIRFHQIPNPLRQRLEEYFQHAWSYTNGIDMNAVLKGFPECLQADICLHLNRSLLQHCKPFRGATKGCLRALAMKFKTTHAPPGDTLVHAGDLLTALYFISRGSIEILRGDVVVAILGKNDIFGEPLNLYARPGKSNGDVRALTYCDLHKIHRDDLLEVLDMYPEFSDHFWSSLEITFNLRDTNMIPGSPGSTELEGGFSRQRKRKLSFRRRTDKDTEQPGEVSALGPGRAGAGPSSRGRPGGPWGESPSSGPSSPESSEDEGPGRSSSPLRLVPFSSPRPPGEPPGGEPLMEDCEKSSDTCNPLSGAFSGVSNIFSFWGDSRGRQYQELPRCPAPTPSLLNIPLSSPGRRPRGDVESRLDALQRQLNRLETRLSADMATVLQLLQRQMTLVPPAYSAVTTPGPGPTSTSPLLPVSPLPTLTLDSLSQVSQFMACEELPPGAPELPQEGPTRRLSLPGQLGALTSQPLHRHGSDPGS

Row | SMILES | hERG current change (%, negative = inhibition) at 1uM
1 | COc1ccc(CCC(=O)Nc2ccc(C(=O)c3ccncc3)cc2)cc1 | 12.9%
2 | Nc1cccc2c1C(=O)N(Cc1cccc(Cl)c1)C2=O | 8.35%
3 | COC(=O)c1cccc(Oc2nc3c(c(=O)n(C)c(=O)n3C)n2Cc2ccc(C)cc2)c1 | 9.99%
4 | CCOC(=O)c1cc(S(=O)(=O)N2CCCC2)cn1C | 15%
5 | COc1ccc(CN2CCN(Cc3ccc(C)cc3)C(CCO)C2)cc1OC (stereo not drawn) | -13.3%
6 | CCOC(=O)c1[nH]c(C)c(C(=O)OCC(=O)NCc2ccc(OC)cc2)c1C | 8.09%
7 | COc1ccc(N2C(=O)CC(c3cc(OC)c(OC)c(OC)c3)CC2=O)cc1 | 7.75%
8 | CC/C(=N\NC(=O)c1nnn(-c2nonc2N)c1-c1ccc2c(c1)OCO2)c1ccccc1 | 9.96%
9 | O=c1oc2c(CN3CCOCC3)c(O)c(Cl)cc2c2c1CCCC2 | 7.18%
10 | O=C(CSc1ccc(-c2ccc(Cl)cc2)nn1)NC1CCCC1 | 12%
11 | O=C(Nc1ncc([N+](=O)[O-])s1)c1ccccc1Br | 13.3%
12 | COC(=O)c1ccc(C)c(NC(=S)NCc2ccc(Cl)cc2)c1 | 8.06%
13 | CNc1ccc(C2(O)C(=O)c3ccccc3C2=O)cc1 | 0.586%
14 | CC1(C)CC(=O)C(C(O)c2ccccc2)C(C)(C)N1 (stereo not drawn) | 11.7%
15 | COc1ccccc1[C@@H]1C(c2cccc(Cl)c2)=NN(c2ccccc2)[C@H]1C(=O)N1CCOC1=O | 12.3%
16 | Cc1nn2c(C(F)(F)F)cc(-c3ccc(Cl)cc3)nc2c1C(=O)N1CCOCC1 | -0.53%
17 | COc1ccc(-c2[nH]ncc2CNC(C)CCn2cccn2)cc1F (stereo not drawn) | 10.2%
18 | COc1cccc(CNC(=O)CN(C)S(=O)(=O)c2ccc3c(c2)n(C)c(=O)c(=O)n3C)c1 | 15.2%
19 | NC(=O)CSc1nc2ccccc2c(=O)n1-c1ccccc1 | 16.8%
20 | c1ccc(Cn2c(NCc3ccco3)nc3ccccc32)cc1 | -9.99%
21 | COCCn1nnnc1CN(Cc1cc2cc(OC)c(OC)cc2[nH]c1=O)C1CCCC1 | 5.95%
22 | COc1ccc(NC(=O)CN(C)S(=O)(=O)c2cccc3cccnc23)cc1 | 3.62%
23 | CN(CC(=O)Nc1cccc(F)c1)C(=O)CN1C(=O)C2CCCCC2C1=O (stereo not drawn) | 12.5%

Row | SMILES | hERG current change (%, negative = inhibition) at 1uM
24 | CC(C)c1ccc2c(c1)C1Cc3ccccc3C1N2.O=C(O)C(F)(F)F (stereo not drawn) | 6.21%
25 | Cc1ccc(CNC(=O)Nc2ccc(F)cc2)n1C | 10.6%
26 | O=C(CSc1ccc(S(=O)(=O)N2CCCCC2)cn1)Nc1ccccc1Br | -0.585%
27 | Cc1ccc(S(=O)(=O)NC2CC3CCC2C3)cc1 (stereo not drawn) | 8.24%
28 | Cc1ccnc(SCCn2c(N3CCOCC3)nc3c2c(=O)[nH]c(=O)n3C)n1 | -11%
29 | CCC(Sc1nccn1C)C(=O)Nc1cccc2ccccc12 (stereo not drawn) | 9.89%
30 | CNC(=O)c1nc(C)n(-c2cc(Cl)cc(Cl)c2)n1 | 7.97%
31 | O=C1CN(S(=O)(=O)c2ccc(Cl)cc2C(F)(F)F)CCN1 | -1.87%
32 | Cn1nnc(NC(=O)CSc2ccc(Cl)cc2)n1 | 13%
33 | COc1ccc(C(=O)NCc2cccnc2)cc1Br | 15.9%
34 | CC(C)C(NC(=O)C(NC(=O)C1O[C@@H]2OC(C)(C)O[C@@H]2[C@H]2OC(C)(C)O[C@@H]12)C(C)C)C(=O)O (stereo partly drawn) | 10.8%
35 | O=C(NC1CCSc2ccccc21)c1cc(S(=O)(=O)N2CCOCC2)ccc1Cl (stereo not drawn) | 5.63%
36 | Cc1c(/C=N/O)sc2ccccc12 | 7.77%
37 | COc1ccc(NC(=S)N2N=CCC2c2ccccc2)cc1 (stereo not drawn) | 16.1%
38 | O=C(Cn1nc(C(=O)O)c2ccccc2c1=O)Nc1cc(Cl)ccc1-n1cncn1 | 11.3%
39 | Cc1cc(C)cc(OCc2ccc(C(=O)NN)o2)c1 | 16.5%
40 | FC(F)(F)c1ccncc1-c1nnc(C2CCCCC2)o1 | 15.5%
41 | CCCN1CCN(CC(=O)Nc2nnc(CC)s2)CC1 | 16.5%
42 | O=C(COC(=O)/C=C/C(=O)N1CCN(c2ccccc2)CC1)NC(c1ccccc1)c1ccccc1 | 10.3%
43 | COC(=O)C1=C(C(=O)OC)[C@@H]2N(C)c3ccc(OC)cc3[C@@]23C[C@@H](C(=O)OC)N(C(=O)c2ccc(Br)cc2)C3=N1 | 4.45%
44 | CC(C)(C)c1cc(C(=O)NNC(=O)Nc2cccc(Cl)c2)n(Cc2ccccc2)n1 | 12.4%
45 | CCCCCCOc1ccc(CN2CCN(C)CC2)cc1 | -0.56%
46 | CC(C)CN(C(=O)CSc1ccc2c(c1)OCCO2)c1c(N)n(CC(C)C)c(=O)[nH]c1=O | 7.87%

Row | SMILES | hERG current change (%, negative = inhibition) at 1uM
47 | S=C1NCCN1 | 16.3%
48 | COc1ccc(-c2nnc(SCC(=O)N3CCCC(C)C3)o2)c(OC)c1 (stereo not drawn) | 8.13%
49 | Cn1cnc(S(=O)(=O)NCc2cccs2)c1 | 16.6%
50 | C/C(=N\Nc1nc(C)cc(=O)[nH]1)C1CC1 | -5%
51 | Cc1occc1C(=O)N/N=C/C=C/c1ccccc1 | -0.998%
52 | CCC(CC)c1nnc(NC(=O)C2=COCCO2)s1 | 8.82%
53 | CCc1cccc(CC)c1NC(=S)NC(C)c1ccccc1 (stereo not drawn) | -7.57%
54 | COc1ccc(CN(C)C(=O)c2ccc(NC(=O)CC3SC(N4CCCC4)=NC3=O)cc2)c(OC)c1 (stereo not drawn) | 11.2%
55 | O=C(Nc1ccc(OC(=O)N2CCCC2)cc1)N1CCOCC1 | 3.18%
56 | CCCOc1ccc(CNCCCOCC)cc1OC.O=C(O)C(=O)O | 1.93%
57 | COc1ccc(-c2nn(-c3ccccc3)cc2/C=N/Nc2ccc(S(N)(=O)=O)cc2[N+](=O)[O-])cc1OC | 15%
58 | COc1cc(OC)c(OC)cc1/C=C(\C#N)C(=O)NCc1cccs1 | 17.2%
59 | CCCCCn1c(=O)c2ccccc2n2c(=S)[nH]nc12 | 5.25%
60 | CC/C(=N\NC(=O)c1ccccc1O)c1c(O)n(C2CCCCC2)c(=O)[nH]c1=O | 19%
61 | C=CCn1c(COc2ccccc2)nnc1SCC(=O)O | 0.176%
62 | CC(=O)Nc1ccc(NC(=O)c2ccc([N+](=O)[O-])cc2Cl)cc1 | 6.14%
63 | Cc1cc(=O)oc(C)c1C(=O)Nc1cccc2ccccc12 | 11%
64 | CCOC(=O)C(C)n1nc(/C=C/c2ccc(OC)cc2)ccc1=O (stereo not drawn) | 2.35%
65 | CN(C)c1ccc(/C=N\NC(=O)c2cccc3cc[nH]c23)cc1 | 8.16%
66 | C/C(=C\C(=O)c1ccc(C)o1)Nc1ccc(C(=O)O)cc1C | 3.78%
67 | CCn1c(SCC(=O)C(C)(C)C)nnc1-c1ccccc1OC | 11%
68 | CS(=O)(=O)N(CC(=O)Nc1cccc(Cl)c1Cl)c1ccccc1 | 17.2%
69 | CN(C)CCC(O)c1ccccc1 (stereo not drawn) | 8.63%

Row | SMILES | hERG current change (%, negative = inhibition) at 1uM
70 | Cc1cccc2sc(NNC(=O)c3ccc4c(c3)OCCO4)nc12 | -4.43%
71 | CS(=O)(=O)O.NC1C2CN(c3nc4c(cc3F)c(=O)c(C(=O)O)cn4-c3ccc(F)cc3F)CC12 (stereo not drawn) | 7.19%
72 | O=C1CN(CC(=O)N2CCCCC2)c2ccccc2O1 | 12.6%
73 | C/C=C/C(=O)N1CC2(CC(c3cccc(NC(=O)/C(C)=C/C)c3)=NO2)C[C@H]1C(N)=O (stereo partly drawn) | 3.54%
74 | c1ccc(CCNc2c3c(nc4ncnn24)CCC3)cc1 | -3.14%
75 | CCn1cc(C(=O)NCCCOC(C)C)c2cc(OC)c(OC)cc2c1=O | 7.12%
76 | O=C(c1ccc(COc2ccccc2Cl)o1)N1CCN(Cc2ccc3c(c2)OCO3)CC1 | 6.53%
77 | O=C(CN1C(=O)NC2(CCCC2)C1=O)Nc1nc2ccccc2s1 | 6.67%
78 | Cc1nc(C)c(C(=O)N/N=C/c2c[nH]c3ccccc23)s1 | 21.3%
79 | O=C(CCS(=O)(=O)Cc1ccccc1)Nc1nncs1 | 22.7%
80 | Cc1ccc([C@@H]2[C@@H]3C(=O)N(C)C(=O)[C@@H]3[C@]3(Cc4ccccc4)C(=O)N(Cc4ccccc4)CC(=O)N23)o1 | 7.29%
81 | Cc1cccc(OCc2nnc(NC(=O)c3cccs3)s2)c1 | 1.72%
82 | CC(=O)N/C(=C\c1ccccc1)C(=O)OCc1ccc(F)cc1 | 27.3%
83 | Cc1cccc(N(CC(=O)NCCSCc2ccco2)S(=O)(=O)c2ccccc2)c1 | 11.4%
84 | COC(=O)c1c(C)[nH]c(C)c1-c1cccc([N+](=O)[O-])c1 | 1.07%
85 | Cc1ccc2c(CN(C)Cc3ccc(Cl)cc3Cl)cc(=O)oc2c1 | 7.43%
86 | O=C(Nc1nnc(-c2cccs2)o1)c1ccco1 | -0.481%
87 | COc1cc([N+](=O)[O-])cc2sc(NC(C)=O)nc12 | 4.35%
88 | C/C(CC(=O)NCc1ccco1)=N\NC(=O)c1ccc([N+](=O)[O-])cc1Cl | 9.29%
89 | CC(NC(=O)c1cc(=O)[nH]c2ccc(Br)cc12)c1ccccc1 (stereo not drawn) | 14.7%
90 | Cc1cc(C)n(C(=O)CCCCCCCCC(=O)n2nc(C)cc2C)n1 | 4.55%

From PMC4336329 (PLoS ONE, 2015)
